Here are results for 19 variants from the RNAGym collection of RNA variant scans (doi:10.1073/pnas.2313332121).

To fix the notation:
B1: TPR 5TU (parent)
chain: GGAUCUUCUCGAUCUAACAAAAAAGACAAAUCUGCCACAAAGCUUGAGAGCAUCUUCGGAUGCAGAGGCGGCAGCCUUCGGUGGCGCGAUAGCGCCAACGUUCUCAACUAUGACACGCAAAACGCGUGCUCCGUUGAAUGGAGUUUAUCAUG

Variants at the floor of the assay are shown more often than the library holds them. Some results are limits rather than exact numbers.

In the series the parent is B1. Briefly: polymerase ribozyme fitness, log enrichment relative to wild type (log ratio); higher = more active; in vitro selection for triplet polymerase activity. The gist of the method: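 Mutant libraries for each subunit of a heterodimeric triplet polymerase ribozyme were made by PCR and then transcribed. Each library underwent one round of in vitro selection in triplicate: annealing with a biotinylated primer, the partner subunit and triplets, frozen incubation at −7 °C, gel excision of extended constructs, streptavidin-bead capture and RT-PCR. Input and output libraries were Illumina-sequenced, and only genotypes with ≥10 input reads and ≥1 read per output were kept. Fitness is the logarithm, base 2, of genotype enrichment over wild-type enrichment, computed from inverse-variance-weighted replicate averages.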
For the variant GGAUCUUCUCUAUCUAACAAUAAAGACAAAUCUGCCACAAAGCUAGAGUGCAUCUUCGGAUGCAGAGGCGGCAGCCUUCGGUGGCGGGAUAGUGCCAACGUUCUCAACUAUGGCACGCAAAACGCGUGCUCCGUUGAUUGGAGUUUAUGAUG [G11U A21U U45A A49U C87G C93U A113G A138U C149G], the “polymerase ribozyme fitness (log ratio)” value was at most -4.2.
For the variant GGAUCUUCUCUAUCUUACAAAAAAGACAUAACUGCCACAUAGCUUGAGAGCAUCUUCGGAUGCAGAGGCGGCAGCCUUCGGUGUCUCGGUAGCGCCAACGUUCUUAACUAUGACACGCAAAACGCGUGCUCCGUUGACUGGAGUUUAUCAUG [G11U A16U A29U U31A A40U G84U G86U A89G C105U A138C], the “polymerase ribozyme fitness (log ratio)” value was at most -4.2.
With GGAUCUUCUCCAUCUAACAAAAAAGACAAAUCUGCCACAAAGCUUGAGAGCAUCGUCGGAUGCAGAGGCGGCAGCCUUCCGUGGAGCGAUAGCGCCAACGUUCUCAGCUAUGACACGCAAAACGCGUGCUCCGUUGAAUGGAGUUUAUCAUG [G11C U55G G80C C85A A107G] the figure was at most -4.2; with GGAUCUUCUCCAUCUAACAAAAAAGACAAAUCUGCCACAAAGCUUGAGAGCAUCUUCUGAUGCAGAGGCCGCAGCCUUCGGUGGAGGGAUAGCGUCAACGUUCUCAACUAUGGCAUGCAAAACGUGUGCUCCGUUGAAUGGAGUUUAUCAUG [G11C G58U G70C C85A C87G C95U A113G C116U C125U], at most -4.2; with GGAUCUUCUCUAUCUAACAAAAAAGACAAAUCUGUCACAAAGCUUGAGGGCAACUUCGGAUGCAGAGGCGGCAGCCUUCGGUGGCGUGCUAGCGUCAACGUUCUCAACUAUGACACGCAAAACGCGUGCUCAGUUGAAUGGCGUUUAUCAUG [G11U C35U A49G U53A C87U A89C C95U C132A A142C], at most -4.2.
For GGAUCUUCUCUAUCUAACAAAAAAGACAAAUCUUCCACAAAGCUUGAGAGCAUCUUCCGAUGCAGAGGCGGCAGCCUUCGGUGGCGCGAUAGCGUCAACGUUCUCAACUAUGACACGCAAAACGCAUGCUCCGUUGAAUGGAGAUUAUCAUG [G11U G34U G58C C95U G126A U144A], the “polymerase ribozyme fitness (log ratio)” value was at most -4.2.
With GGAUCUUCUCUAUCUAACAAAAAAGACAAAUCUGCCACACAGCUUGAGACCAUCUUCGGAUGCAGAGGCGGCAGCCUUCGGCGGAGCGAUAGCGCCAACGAUCUCCACUAUGACUCGCAAAACGCGUGCUCCGUUGAAUGGUGUUUAUCAUG [G11U A40C G50C U82C C85A U101A A106C A115U A142U] the figure was at most -4.2; with GGAUCUUCUCUAUCUAACACAAAAGAAAGAUCUGCCACAAAGCUUGAGAGAAUCUUCGGAUGCAGAGGCUGCAGCCUUCGGUGGCGCGAUAGCGCCAACGUUCUCAACUAUGACACGCAAAACGCGUGCUCCGAUGAAUGGAGUUUAUCAUG [G11U A20C C27A A29G C51A G70U U134A], at most -4.2.
Regarding GGAUCUUCUCUAUCUAACAAAAAAGACAAAUCUGCCUCAAAGCUUGAGAGCAUCUUCGGAUGCAGAGGCGGCAGCCUUCGGUGGCGGGAUAGCGCCAACGUUCUCCACUAUGACACGCAAAACGCGUACUCCGUUGAAUGGAGUUUAUCAUG [G11U A37U C87G A106C G128A], the “polymerase ribozyme fitness (log ratio)” value is at most -4.2.
Consider GGAUCUUCUCCAUCUAACAAAAAAGACAAAUCUGCCACAAAGCUUGAGAGCAUCUUCGGAUGCAGAGACGGCAGCCUUCGGUGGCGCGGUAGCGCCAACGUUCUCAACUAGGAGACGCAAAACGCGUGCUCCGUUGAAUAGAGUUUAUCAUG [G11C G68A A89G U111G C114G G140A], for which the “polymerase ribozyme fitness (log ratio)” value was at most -4.2.
With GGAUCUUCUCUAUCUAACAAAAAAGACAAAUCUGCCACAAAGCUUGAGAGCAUCUUCGGAUGCAGAGGCGGCAGCCUUAGGUAGCGCGAUAGUGCCAAGGUUCUCAACUAUGACACGCAAAACGGGUGCUCGGUUGAAUGGAGUUUAUCAUG [G11U C79A G83A C93U C99G C125G C132G], the “polymerase ribozyme fitness (log ratio)” value was at most -4.2.
With GGAUCUUCUCUUUCUAACAAAAAAGAGAAAUCUGCCACAAAGCUUGAGAGCAUCUUCGGAUGCCGAGGCGGCAGCCUUCGGUGGCGCGAUAGUGCCAACGUUCUCAACUAUGACACGCAAAACGCGUGCUCCGUUGAAUGGAGUUUAUCGUG [G11U A12U C27G A64C C93U A150G], the “polymerase ribozyme fitness (log ratio)” value was at most -4.2.
On to GGAUCUUCUCUAUCUAACAACAAAGACAGAUCUGCCACAAAGCUGGAGAGCAUCUUCGGAUGCAGAGGCGGCAGCCUUCGGUGGCGCGAUUGCGCCAACGUUCUCAACUAUGACACGCAAAACGCGUGGUCCGUUGAAUGGAGUUUAUCAUG [G11U A21C A29G U45G A91U C129G], for which the “polymerase ribozyme fitness (log ratio)” value was at most -4.2.
In the case of GGAUCUUCUCUAUCUAACAAAAAAGACAAAUCUGCCACAAAGCUUGAGCGCAUCUUCGGAUGCAGAGGCGGCAGCCUUCGGUGGAGCGAUAGAGCCAACGUUCUCAACUAUGACACGCAAAACUCGUGCUCCGUUGAAUGCAGUUUAUCAUG [G11U A49C C85A C93A G124U G141C], the “polymerase ribozyme fitness (log ratio)” value is at most -4.2.
As for GGAUCUUCUCUAUCUAACAAAAAAGACAAAUCUGCCACAAAGCUUGAGAGCAUCUUCGGAUGCAGAGGCGGCAGCCUUCGGUGGCGCCAUAGGGCCAACGUUCUCAACUAUGACACGCAAAACGCGUGCUCCGUUGAAUGGACCUUAUCAUG [G11U G88C C93G G143C U144C], the “polymerase ribozyme fitness (log ratio)” value was at most -4.2.
With GGAUCUUCUCCAUCUAACAAAAAAGACAAAUCUGCCACAAAGCUUGAGAGCAUCUUCGCAUGCAGAGGCGGCAGCCUUCGGUGGCGCGAUAGCGACAAGGUUCUCAACUAUGACACGCAAAACGCGUGCUCCGUUGAAUGGAGUUUAUCAUG [G11C G59C C95A C99G], the “polymerase ribozyme fitness (log ratio)” value was at most -4.2.
For GGAUCUUCUCUAUCUAACAAAAAAGAAAAAUCUGCCACAAAGCUUGAGAGCAUCUUCGGAUGCAGAGGCGGCAGCCUUCGGUGGCGGGAUAGCGCCAACGUUCUCAACUAGGACACGCAAAACGCGUGCUUCGUUGAAUGGAGUUGAGCAUG [G11U C27A C87G U111G C131U U146G U148G], the “polymerase ribozyme fitness (log ratio)” value was at most -4.2.
With GGAUCUUCUCUAUCAAACAAAAAAGACAAAUCUGCCACAAAGCUUGAGAGCAUCUUCGGAUGCAGAGGCGGCAGCCUUCGGUGGCGCGAUAGAGCCAACGUUCUCAACUAUGACACGCACAACGCGUGCUCCGUUGAAUGGAGUUUAUCAUG [G11U U15A C93A A120C], the “polymerase ribozyme fitness (log ratio)” value is at most -4.2.
GGAUCUUCUCUAUCUAACAAUAAAGACAAAUCUGCCACAAAGCUAGAGAGCAUCUUCGGAUGCAGAGGCGGCAGCCUUCGGUGCCACGAUAGCGGCAACGUUCUCAACUAUGACACGCAAAACGCGUGCUCCGUUGAAUGGAGUUUAUCAUG [G11U A21U U45A G84C G86A C95G]: the “polymerase ribozyme fitness (log ratio)” value was at most -4.2.
